{"source": "paper PMC12136788", "binders": {"B1": {"name": "chr3:10168198:10168199:+_ENSG00000254999_ENST00000256463|hu_hu|FALSE|FALSE (ssRNA)", "RNA": "GGGAGUUCUACAGUCCGACGAUCUGUCUCAAAUACAUUGACAAGUAGAUGUAUAAAAUGUUACUGAAAAGGUAAAAUGCCUAACGUCGUUUCCAACGGUUCCUCUGAACUUCUUCCCACAUACCACACCACACCCCAGAUGGCCAACAGAGGAUUGAGCAUCA"}, "B2": {"name": "chr14:66974463:66974464:+_ENSMUSG00000022044_ENSMUST00000074523|mus_hu|mus_mus_mus_hu_False|58_58 (ssRNA)", "RNA": "GGGAGUUCUACAGUCCGACGAUCUUGUAGGACGACUUAUUCAGGGGAUCGGCCAGGAAGCAGGAGCAGAACAAGGACACUAGUGGGAGCUCCUUCAUCUUCUCUUUGUAGGCAGCAAGGGUCAUGUUUCUGGGAUCUGGUGGCCAACAGAGGAUUGAGCAUCA"}, "B3": {"name": "chr2:241070490:241070491:-_ENSG00000172428_ENST00000607357|hu_hu|FALSE|FALSE (ssRNA)", "RNA": "GGGAGUUCUACAGUCCGACGAUCAGGGCUUGGCCCCGCCUGCAGCCAGAGGGCAUCUCACUGGAUGUCAUCAUCAUCAAAAAGAUCUUCAAAAUCGUUAAAAAAGUCUGCAUGAACGGCCUUUUCAUUGGCUGCCAAGUCCAUCAACAGAGGAUUGAGCAUCA"}, "B4": {"name": "chr2:136540380:136540381:+_ENSG00000144224_ENST00000272638|hu_hu|motif|central (ssRNA)", "RNA": "GGGAGUUCUACAGUCCGACGAUCGGAAUUUCCAUUCCAAGUGUUGUUUUCAUCUUCACCAUCAUCUUGAGUCCUUAAUCGGUAAAUUUUCCCCUCCUUUUUAAAGUCGUCUCCACGUUUUUCCAGCACUCUUUUUCUCACUGGCAACAGAGGAUUGAGCAUCA"}, "B5": {"name": "chr4:110743517:110743518:+_ENSG00000109534_ENST00000226796|hu_mus|motif|central (ssRNA)", "RNA": "GGGAGUUCUACAGUCCGACGAUCUUUCUCACCAGGAGGACGAGGCAGAAACCUCUGCAGCGGCAGCAGCUUGUAUGGGUCGGUAUAGAACUUCUGUAGCUUUUUAAAGGAAGAUGCCUUCAUGUUUUCUGACAACUUAACUGACAACAGAGGAUUGAGCAUCA"}, "B6": {"name": "chr3:10015032:10015033:+_ENSMUSG00000027533_ENSMUST00000029046|mus_mus|mus_mus_mus_hu_True|38_58 (ssRNA)", "RNA": "GGGAGUUCUACAGUCCGACGAUCGUUUUUACCAUCACAAGUGAUGAUACAAUCUGGCUUGGCCAUUGCGCCCAUUUUCCUAAGAGCUAUUCCCACUCCUAGCUCUUUCAUGUAUUCAUCAAAGCCUUUGCUGUCCACCAGGCGCAACAGAGGAUUGAGCAUCA"}, "B7": {"name": "chr2:47387792:47387793:-_ENSG00000143933_ENST00000272298|hu_hu|hu_hu_hu_mus_True|8_28 (ssRNA)", "RNA": "GGGAGUUCUACAGUCCGACGAUCUAAGGACAAUGACAGUAAGAUAAGGGAAGAAAACAUGGAGGAAUGAAGUCCUAAUUACUAUACAUGCAUAUUUUUUGACAGUAAGGGAGAAACACCUUUUACAUAAGUUACAAAAACAAACAACAGAGGAUUGAGCAUCA"}, "B8": {"name": "chr2:129997582:129997583:-_ENSMUSG00000027404_ENSMUST00000103199|mus_mus|FALSE|FALSE (ssRNA)", "RNA": "GGGAGUUCUACAGUCCGACGAUCGGGAGGGAGCCCUGAAAGGGAAACCAGACAAUCCAGGGAGACUCCAUGAACUGCAUAACAAACAAACAGGUCUGUGGUAACCUGACCCUGGGGAACAGGGUCCACAUCGCCUCUGAGCUACAACAGAGGAUUGAGCAUCA"}, "B9": {"name": "chr5:66692119:66692120:-_ENSMUSG00000029207_ENSMUST00000159786|mus_mus|FALSE|FALSE (ssRNA)", "RNA": "GGGAGUUCUACAGUCCGACGAUCAAGGACAACGGGCUUACGGUAAGUGGCCAUUUUCCUUAACUCACUGGGGAGUUCUGAGAUUGCCUGACAGUAUUCCUGUUCACUGUGUGGCCCCAGAGUCCUUUGUGAAGGGUCCUCCUGCAACAGAGGAUUGAGCAUCA"}, "B10": {"name": "chr3:52741720:52741721:+_ENSG00000114902_ENST00000602728|hu_mus|motif|central (ssRNA)", "RNA": "GGGAGUUCUACAGUCCGACGAUCGUAGAUAGGCCAUGGAGGAAGUGUCAGCAAACAGGAGAAAGCAAAUCCGGCCAUAACGGUGUAGACAGUCCACCCAAACUGUUCAGCCACGUACCCGUAGAUAAACCCAACUAUUGCAGACAACAGAGGAUUGAGCAUCA"}, "B11": {"name": "127918021_127918818_1762_CDS_ENSMUSG00000025369_ENSMUST00000099131|mouse|control|control (ssRNA)", "RNA": "GGGAGUUCUACAGUCCGACGAUCGCCCUUAGCCGUCUCUGGCACCAGGUCAUCCAGCUCUUUGCCCUUCCGCCCAGCCUUGGUGUCAGCAUCAACCUGGCGGCCCUGUGGAGGCUUCGGCUGAAGAGGAACCAGCCCUGAUGGCAACAGAGGAUUGAGCAUCA"}, "B12": {"name": "35570169_35570289_840_CDS_ENSG00000197056_ENST00000373330|human|control|control (ssRNA)", "RNA": "GGGAGUUCUACAGUCCGACGAUCGCUGGUGUAACAGUAAGUGCCACAGUUCUCACAGCAGUUCAUGAUGAAGUUGUUAGCAGAGUGAAACUUUGAAAGGCAGGCAUUACUGCAAAGAUUAUGUUUCACAUUUUGGUAUUUUACCAACAGAGGAUUGAGCAUCA"}, "B13": {"name": "39911895_39915287_1535_3pUTR_ENSG00000121892_ENST00000303538|human|control|control (ssRNA)", "RNA": "GGGAGUUCUACAGUCCGACGAUCAUUAAACAAUGACUGGCAAAUUUCACACUUUCUAAUCUCACAGGAACAUGAAUAUCAUUAAAUCGUCCAAGAAAACAUUGCCAAAGAGGACGAUUCUGUGUUGCCAAAUCAGAAUCUUUGCAACAGAGGAUUGAGCAUCA"}, "B14": {"name": "chr17:46381155:46381156:-_ENSMUSG00000067148_ENSMUST00000087026|mus_hu|FALSE|FALSE (ssRNA)", "RNA": "GGGAGUUCUACAGUCCGACGAUCCCCCAUCAGUACUUUGAUGGCUUCACUCACCAGCACAUCUGGUGGCAACACCCCCGUUGACUCAACAGAGAAGAUAUAAUGAUCUCGAACCCGGGCAAGCCUCACAACCUUCUUUAGCUUCAACAGAGGAUUGAGCAUCA"}, "B15": {"name": "chr4:144460044:144460045:+_ENSG00000153147_ENST00000283131|hu_hu|motif|central (ssRNA)", "RNA": "GGGAGUUCUACAGUCCGACGAUCUCGGUCCAUAGCCUGAAGAUCUACUUGGGGAUUCCAAUCAGAAUCAUACAAAAUUACGGCAUCAGCAGUCGCAAGAUUGAUGCCAAGACCACCAGCACGCGUGCUUAACAUGAAAACAAACAACAGAGGAUUGAGCAUCA"}, "B16": {"name": "8888064_8890295_3602_CDS_ENSG00000134313_ENST00000427284|human|control|control (ssRNA)", "RNA": "GGGAGUUCUACAGUCCGACGAUCUGAGAUGAGAUGUUGGGAGCCGCCAGGGUAAUACCUUGGCGUGUAAAGGUAUGGGGCAAAGAAUGGCCUGUUGUAGAAGGGAUGCUGAGGGCCCGUCAUGCCGCUGUAAUAGCUGCUGUGCAACAGAGGAUUGAGCAUCA"}, "B17": {"name": "chr19:12019223:12019224:+_ENSMUSG00000046139_ENSMUST00000061618|mus_hu|motif|central (ssRNA)", "RNA": "GGGAGUUCUACAGUCCGACGAUCAGGGAAGGUAGGAAAGGCAUGUAGUGGAAAUGGUCAGUAGACAACGGUAGAGGGAAGCGGGGUAACAUCACUGGGGAACAGCUGGUGGAGCCUGGGGUUACAGCAUGGGAAGAAAUGGAGCAACAGAGGAUUGAGCAUCA"}, "B18": {"name": "chr9:59598888:59598889:+_ENSMUSG00000039585_ENSMUST00000128341|mus_hu|FALSE|FALSE (ssRNA)", "RNA": "GGGAGUUCUACAGUCCGACGAUCGAGCAGGCACAUCCCCCGCCGCACCCCGCCCAGAGAGCACGCGUUGGACCGCCGCCUCAACCGCUGCCAGCGGCCGCCUCUGCCGGUGCAACUACUGCCUCCGCCGCCGCCUCUCGCAGUCAACAGAGGAUUGAGCAUCA"}, "B19": {"name": "chr15:81756291:81756292:-_ENSMUSG00000022476_ENSMUST00000023113|mus_mus|FALSE|FALSE (ssRNA)", "RNA": "GGGAGUUCUACAGUCCGACGAUCUCAGCUCCUCAGCAAUGGAAUCGUUGAGUUUCCGCUCAAACUGCCACGGGGGUAUGCGCACGGUGUCCACCAUCUCCACCAGCACGAACAUCCUGCGCUAGGGCUCUGGAGACCGGAGAGCAACAGAGGAUUGAGCAUCA"}, "B20": {"name": "chr5:176562935:176562936:+_ENSG00000165671_ENST00000439151|hu_hu|FALSE|FALSE (ssRNA)", "RNA": "GGGAGUUCUACAGUCCGACGAUCGGUACUGGAAUCUGGAUCAUCCUGAAAAGAUAAAUUUAUUGAGUUUAAUUGCUCUUCUAUUGUAAUGUUUGUGUCUCCUAGUGAAAAGGGGGCUGGGAGAAGGGCUGCUUUUUCAUUGCUCAACAGAGGAUUGAGCAUCA"}, "B21": {"name": "113631540_113639574_425_3pUTR_ENSG00000086827_ENST00000200135|human|control|control (ssRNA)", "RNA": "GGGAGUUCUACAGUCCGACGAUCCCUGCAACUGUUUAAGCAAACUUAGGACAACUGAGUCUCUUUCCAACUGCUGCUUUAAGUCUGUAAAUUCACCGGUUGAUACGUGAAGAUCCCGGCGGACCUCACUCUCUAUCCUGGAUUCAACAGAGGAUUGAGCAUCA"}, "B22": {"name": "chr3:179287964:179287965:+_ENSG00000136518_ENST00000429709|hu_hu|hu_hu_hu_mus_True|8_8 (ssRNA)", "RNA": "GGGAGUUCUACAGUCCGACGAUCCUUGAGUGGUGAGAUGGCCUCCAUGUUCUCCCUGGGCACGCGGAGGGCAUUGGUGUCUAUGUAGUAGGUGGGCCCGCCCUGCUUGCCUUUGUCACCAUCAAUCUCCAUUAAUGUACUUCCCAACAGAGGAUUGAGCAUCA"}}, "note": "The other results are listed elsewhere or left out."}
{"target": "T1, UNK ZnF1-3 (human, UniProt Q9C0B0 31-174)", "T1 sequence": "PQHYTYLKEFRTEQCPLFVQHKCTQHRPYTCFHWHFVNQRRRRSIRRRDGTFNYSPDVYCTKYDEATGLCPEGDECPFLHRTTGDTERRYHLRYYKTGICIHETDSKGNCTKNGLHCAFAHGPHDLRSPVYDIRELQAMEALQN", "assay": "nsRBNS (natural sequence RNA bind-n-seq); RBNS binding buffer (assumed for nsRBNS): 25 mM Tris pH 7.5, 150 mM KCl, 3 mM MgCl2, 0.01% Triton X-100, 500 ug/ml BSA, 20 U/ml SUPERase-In, 4 C; UNK is unkempt and MSI1 is Musashi-1; names of the RNAs are library labels; protein concentration not given here; high values mean tight binding", "units": {"binding signal": "enrichment R"}}
{"binder": "B1", "binding signal": 1.15}
{"binder": "B2", "binding signal": 2.26}
{"binder": "B3", "binding signal": 1.33}
{"binder": "B4", "binding signal": 0.445}
{"binder": "B5", "binding signal": 1.22}
{"binder": "B6", "binding signal": 0.559}
{"binder": "B7", "binding signal": 2.14}
{"binder": "B8", "binding signal": 1.11}
{"binder": "B9", "binding signal": 0.607}
{"binder": "B10", "binding signal": 1.63}
{"binder": "B11", "binding signal": 0.893}
{"binder": "B12", "binding signal": 1.14}
{"binder": "B13", "binding signal": 0.864}
{"binder": "B14", "binding signal": 1.11}
{"binder": "B15", "binding signal": 1.21}
{"binder": "B16", "binding signal": 1.09}
{"binder": "B17", "binding signal": 2.2}
{"binder": "B18", "binding signal": 0.652}
{"binder": "B19", "binding signal": 1.3}
{"binder": "B20", "binding signal": 1.3}
{"binder": "B21", "binding signal": 0.633}
{"binder": "B22", "binding signal": 0.679}
